This is an account of results in patent US20240076343A1.

Several values for one entry are separate records, joined by “and”; a condition that tells them apart may be missing. Equal entries are not always repeated.

Common to all, as to test: cell-based or functional assay
In test [1] the target is high-affinity hIL-2 receptor (IL-2Rαβγ) (human) (UniProt P01589).
For test [2], the target named is high-affinity hIL-2 receptor (IL-2Rαβγ) on NK-92 cells (human) (UniProt P01589).
Test [3] concerns the target intermediate affinity hIL-2 receptor (hIL-2Rβγ) on TF1+IL-2Rβ cells (human) (UniProt P14784).
The target in test [4] is intermediate affinity hIL-2 receptor complex (IL-2Rβγ) (human) (UniProt P14784).
Test [5] has as its target intermediate affinity hIL-2 receptor complex (IL-2Rβγ) on TF1+IL-2Rβ cells (human) (UniProt P14784).

B1: 1H3-hIgG1-L6-hIL-2 (D20A/E95A/F42K/Y45R) (protein)
heavy: EVQLVESGGGLVQPGRSLKLSCAVSGFTFSDYAMAWVRQAPKKGLEWVATISYDGSRTYYRDSVKGRFTISRDNAKITLYLQMDSLRSEDTATYYCARHGSGYFDYWGQGVMVTVSS[not shown - human IgG1 constant region]SGGGGSAPTSSSTKKTQLQLEHLLLALQMILNGINNYKNPKLTRMLTKKFRMPKKATELKHLQCLEEELKPLEEVLNLAQSKNFHLRPRDLISNINVIVLALKGSETTFMCEYADETATIVEFLNRWITFCQSIISTLT
light: DTVLTQSPALAVSPGERVTISCRASESVRTGVHWYQQKPGQQPKLLIYGASNLESGVPARFSGSGSGTDFTLTIDPVEADDTATYFCQQSWNDPFTFGSGTKLEIKRTVAAPSVFIFPPSDEQLKSGTASVVCLLNNFYPREAKVQWKVDNALQSGNSQESVTEQDSKDSTYSLSSTLTLSKADYEKHKVYACEVTHQGLSSPVTKSFNRGEC
Take B1: in test [1], the Agonistic Activity (NK-92), pSTAT5 titration was in the range of 60 to 70% and the Fold change from rhIL-2 (NK-92), pSTAT5 titration is over 10000 fold. Besides, in test [2], the Fold change from hIL-2 (NK-92) is 21 fold and the Fold change from rhIL-2 (NK-92) was over 10000 fold. For the same molecule, the Agonistic Activity (TF1 + IL-2Rβ) in test [3] was in the range of 40 to 80%. In addition, in test [4], the Agonistic Activity (TF1 + IL-2Rβ), pSTAT5 titration turned out to be 70%; the Fold change from rhIL-2 (TF1 + IL-2Rβ), pSTAT5 titration was 155 fold and 185 fold. Besides, the Fold change from hIL-2 (TF1 + IL-2Rβ) in test [5] is 5 fold.

B2: 1H3-hIgG1-L6-hIL-2 (Δ1-3APT/D20A/R38E/C125A) (protein)
heavy: EVQLVESGGGLVQPGRSLKLSCAVSGFTFSDYAMAWVRQAPKKGLEWVATISYDGSRTYYRDSVKGRFTISRDNAKITLYLQMDSLRSEDTATYYCARHGSGYFDYWGQGVMVTVSS[not shown - human IgG1 constant region]SGGGGSSSSTKKTQLQLEHLLLALQMILNGINNYKNPKLTEMLTFKFYMPKKATELKHLQCLEEELKPLEEVLNLAQSKNFHLRPRDLISNINVIVLELKGSETTFMCEYADETATIVEFLNRWITFAQSIISTLT
light: B1 light
In test [1], B2 came in with an Agonistic Activity (NK-92), pSTAT5 titration of 30 to 70%. In test [2], this molecule yielded a Fold change from hIL-2 (NK-92) of 15 fold and a Fold change from rhIL-2 (NK-92) of over 10000 fold. Moreover, in test [3], the Agonistic Activity (TF1 + IL-2Rβ) turned out to be 60% and the Fold change from rhIL-2 (TF1 + IL-2Rβ) came to 993 fold. Also, the Agonistic Activity (TF1 + IL-2Rβ), pSTAT5 titration in test [4] fell in the range of 40 to 50%. Besides, the Fold change from hIL-2 (TF1 + IL-2Rβ) in test [5] amounted to 4 fold.
